Experimental findings from ChEMBL document CHEMBL4888484, “Replenishing the malaria drug discovery pipeline: Screening and hit evaluation of the MMV Hit Generation Library 1 (HGL1) against asexual blood stage Plasmodium falciparum ,using a nano luciferase reporter read-out” (2022) are described below.

The structures appear in SMILES notation. The whole screen tested about 150,000 compounds, of which about 540 (0.36%) showed an effect of 50% or more. Some of the results follow.

For the assay, the system named is Plasmodium falciparum. Description: Primary screen in NF54 nanoGlo assay, in single point, at 2uM, 72h; a lower Z score goes with more inhibition. Format: functional, Erythrocyte. The note with it: timepoint 72 hour.
Take `O=C(NCc1ccncc1)c1csc(-c2ccc(OCc3cccc(F)c3)cc2Cl)n1`: the “% Inhibition” value is recorded as 7% and the Z score is -0.94.

In the case of `CCc1nnc(N2CCC[C@@]3(CCC(=O)N(CCN(C)C)C3)C2)s1`, the “% Inhibition” value is -10% and the Z score came out at 1.3.

With `COc1ccc(OC)c(CN(Cc2nc(-c3ccc(Cl)cc3)no2)C2CC2)c1`, the “% Inhibition” value is on record as -6% and the Z score amounted to 0.81.

As for `Cc1ccsc1CCC(=O)N1Cc2cccnc2C1`, the “% Inhibition” value was -16% and the Z score was determined as 1.86.

For `Cc1cccc(C(=O)N2CCc3[nH]cnc3C2)c1`, the “% Inhibition” value is on record as -19% and the Z score amounted to 2.24.

For `CC(C)[C@H](NC(=O)C(F)(F)F)C(=O)Nc1cnn(C(C)C2CC2)c1` (stereo not given in full), the “% Inhibition” value is recorded as -4% and the Z score turned out to be 0.46.

As to `Cn1nc(C(F)(F)F)cc1S(=O)(=O)NCCc1noc2ccccc12`, the “% Inhibition” value was 2% and the Z score was -0.28.

On to `c1ccc(-c2nccn2-c2nc(-n3ccnc3-c3ccccc3)nc(-n3ccnc3-c3ccccc3)n2)cc1`, for which the “% Inhibition” value was -38% and the Z score is 4.43.

Take `COCCS(=O)(=O)Nc1cccc2c1CN(CC(C)C)C2`: the “% Inhibition” value is on record as -7% and the Z score came out at 0.97.

Consider `Cc1ccc(F)cc1CNCc1ccoc1`, for which the “% Inhibition” value is recorded as -3% and the Z score came out at 0.34.

For the compound `COC(C)(C)c1nc(-c2ccncc2)no1`, the “% Inhibition” value was 3% and the Z score was -0.43.

As for `O=c1[nH]nc2n1CCN(S(=O)(=O)c1cc(F)ccc1F)C2`, the “% Inhibition” value was -12% and the Z score is given as 2.12.

As to `CC(=O)Nc1ncnc2c1c(-c1ccc(Cl)cc1)nn2C(C)(C)C`, the “% Inhibition” value is on record as -11% and the Z score came to 1.38.

Turning to `CS(=O)(=O)N[C@H]1CCN(C(=O)c2cc(N3CCCC3=O)ccc2F)C1`, the “% Inhibition” value was 2% and the Z score is given as -0.27.

On to `CC(C)CCNC(=O)c1c(O)n2c3c(cccc3c1=O)CCC2`, for which the “% Inhibition” value is given as -18% and the Z score came to 1.58.

Turning to `NC(=O)N1CCN2C(=O)N(CCOc3cccc(F)c3)C(=O)[C@@H]2C1`, the “% Inhibition” value is reported as -1% and the Z score was determined as 0.1.

Turning to `CCOc1cncc(CNc2nnc(-c3cn[nH]c3C)s2)c1`, the “% Inhibition” value is listed as -4% and the Z score is given as 0.52.

Consider `COc1nn(C)cc1C(=O)N(CCn1ccc(C(F)(F)F)n1)C1CCCC1`, for which the “% Inhibition” value was -11% and the Z score was 2.12.

For `N[C@H]1CCCC[C@@H]1NC(=O)N[C@H]1C[C@H](c2ccc(Cl)cc2)C1`, the “% Inhibition” value was found to be 14% and the Z score is recorded as -1.7.

For the compound `CCCc1cnc(N2CCn3nc(CNC(=O)C4CCC4)cc3C2)nc1`, the “% Inhibition” value is listed as -9% and the Z score stood at 0.88.

For the compound `CCN(CC)CC(=O)Nc1cccc(F)c1`, the “% Inhibition” value is reported as -2% and the Z score was determined as 0.3.

Take `CC(CCC1CC1)NC(=O)NCC1CCC(O)C1` (stereo not given): the “% Inhibition” value is listed as -8% and the Z score was 1.19.

`O=C(CCOCC(F)(F)C(F)F)N[C@H]1CCCN(c2ccccc2F)C1=O`: the “% Inhibition” value is -13% and the Z score was found to be 2.28.

For the compound `COc1ccc(CN(C)[C@H]2CCN(CC(F)(F)F)C2=O)cc1F`, the “% Inhibition” value was found to be 0% and the Z score is recorded as -0.04.

Turning to `CC(C)(C)c1cc2c(c(C(C)(C)C)c1)OC1CCCCC1(N1CCCC1)O2` (stereo not given), the “% Inhibition” value was -7% and the Z score is on record as 0.97.

As for `Cc1ccc2[nH]c(C(=O)N3CCC[C@H]3c3ccc(CN(C)C)cc3)nc2c1`, the “% Inhibition” value came out at 7% and the Z score is -1.35.

For the compound `Cc1noc([C@H]2CN(C(=O)c3cccn3C)CC23CCOCC3)n1`, the “% Inhibition” value worked out at 2% and the Z score was -0.38.

Take `Cc1ccsc1S(=O)(=O)NC(=O)[C@H]1CCN(C)C(=O)C1`: the “% Inhibition” value is -9% and the Z score came to 0.82.

On to `O=C(c1ccccc1)N1CCN(Cc2cccnc2)[C@@H]2CS(=O)(=O)C[C@@H]21`, for which the “% Inhibition” value is listed as -5% and the Z score is on record as 0.54.

Regarding `COc1ccc(-c2nn(-c3ccccc3F)cc2CN(C)Cc2nnc(C)o2)cc1`, the “% Inhibition” value is recorded as -6% and the Z score was found to be 1.12.

For the compound `C=CCn1ccnc1-c1cc(C)c(C)o1`, the “% Inhibition” value was 0% and the Z score is reported as -0.02.

In the case of `c1cc(CN2CCC[C@@H]2Cn2cncn2)c2c(c1)OCCO2`, the “% Inhibition” value is -9% and the Z score is 1.1.

`CCC[C@H](NS(C)(=O)=O)c1ccc(F)cc1F`: the “% Inhibition” value is reported as -3% and the Z score amounted to 0.42.

For `CN(CCOC1CCCCO1)C1CCCc2cccnc21` (stereo not given), the “% Inhibition” value is recorded as -3% and the Z score worked out at 0.36.

Consider `CCCn1cc(CN(CC)Cc2ccc3[nH]ccc3c2)cn1`, for which the “% Inhibition” value came out at 1% and the Z score is given as -0.23.

As to `COc1ccc2c(c1)CN(C(=O)c1ccc(C(F)(F)F)cc1)CC[C@H]1COC(=O)N21`, the “% Inhibition” value was -13% and the Z score stood at 2.01.

For `CC(C)n1ncnc1CNc1cc(C(F)(F)F)nc2c(F)cc(Br)cc12`, the “% Inhibition” value was -10% and the Z score is listed as 0.93.

`C[C@@H]1CN(c2ccnc(C3CC3)n2)C[C@H](C)N1CCO`: the “% Inhibition” value is -2% and the Z score is listed as 0.23.

Turning to `CCn1nc(C)cc1C(=O)N1CC[C@@]2(CCCN(CCCc3ccccc3)C2)C1`, the “% Inhibition” value is given as -17% and the Z score turned out to be 2.56.

Take `CC(C)c1ncsc1C(=O)NC1CCCC1CNS(C)(=O)=O` (stereo not given): the “% Inhibition” value was -6% and the Z score amounted to 0.63.

On to `Nc1nccnc1C(=O)NCc1ccc(N2CCNC(=O)C2)cc1`, for which the “% Inhibition” value was -4% and the Z score was 0.78.

Regarding `C[C@H]1c2ccsc2CCN1C(=O)CN1CCS(=O)(=O)CC1`, the “% Inhibition” value is on record as -7% and the Z score was determined as 0.9.

For `CCCc1cc(C(=O)N(Cc2cccnc2)Cc2ccsc2)[nH]n1`, the “% Inhibition” value is reported as -16% and the Z score came out at 1.7.

In the case of `CC(C)COCC(NC(=O)C(C)NC(=O)c1ccoc1)c1ccco1` (stereo not given), the “% Inhibition” value is recorded as -4% and the Z score is listed as 0.79.

With `Cc1cc(C)n(CC(=O)N2c3ccccc3C[C@@H]2C)n1`, the “% Inhibition” value is recorded as -6% and the Z score was determined as 1.01.

`CC1CC(=O)Nc2ccccc2N1C(=O)C1CCCOC1` (stereo not given): the “% Inhibition” value stood at 33% and the Z score is on record as -3.7.

`CCc1[nH]c2c(CNC(=O)CCn3cnnn3)cc(F)cc2c1C`: the “% Inhibition” value is recorded as -14% and the Z score was 1.37.

Consider `CC(C)c1ncc(C(=O)N2CCO[C@@H](Cc3ccccc3Cl)C2)c(=O)[nH]1`, for which the “% Inhibition” value was -3% and the Z score was 0.4.

Regarding `N[C@@H]1c2ccccc2C[C@H]1NS(=O)(=O)N1CCCCC1`, the “% Inhibition” value was -6% and the Z score amounted to 1.06.

For `Cc1nc(C(=O)Nc2ccccc2CN2CCCCC2)cs1`, the “% Inhibition” value is -4% and the Z score is reported as 0.66.

Consider `O=C(Cc1c[nH]c2ccccc12)N1CCS(=O)(=O)CC1`, for which the “% Inhibition” value was -11% and the Z score is reported as 2.04.

In the case of `Cc1ccc2oc(-c3nnc(C(=O)NCCCN4CCC[C@H](C)C4)o3)c(C)c2c1`, the “% Inhibition” value is on record as 22% and the Z score is -2.54.

For the compound `CC(C)[C@@H]1N(C(=O)CCc2cncc(F)c2)CC12CCC2`, the “% Inhibition” value is given as -2% and the Z score was 0.32.

Consider `Cc1nc(OCC(=O)Nc2ccc(F)cc2Cl)c2c(-c3ccccc3)noc2n1`, for which the “% Inhibition” value is listed as -9% and the Z score amounted to 1.42.

As for `COCc1ccc(C(=O)N2C[C@H](C(=O)O)[C@@H](c3ccccc3C)C2)s1`, the “% Inhibition” value stood at 5% and the Z score was -0.91.

One may read the % Inhibition as the drop in the measured response relative to a control, in per cent.
